Source: PubChem BioAssay AID588579 (National Center for Advancing Translational Sciences (NCATS), 2011)
Several values for one entry are separate records, joined by “and”; a condition that tells them apart may be missing. Identical values can stand only once. Hit rate of the full screen: of about 400,000 compounds, about 2,200 (0.55%) were called active. Not shown: some 1% with an inconclusive outcome. The call rests on the fitted dose curve; in most records, active means well fitted inhibition curve with a large enough effect; inconclusive means small, poorly fitted or top-dose-only effect, or another doubt; inactive means no such curve, though single readings can be large or run the other way. The entries are a selection whose mix differs from that of the whole data set. Some structures have more than one record in an assay (separate samples or runs), and their calls can disagree.

Target: DNA polymerase kappa (Homo sapiens) (UniProt Q9UBT6)
Chain of UniProt Q9UBT6 (Q9UBT6 whole entry, looked up): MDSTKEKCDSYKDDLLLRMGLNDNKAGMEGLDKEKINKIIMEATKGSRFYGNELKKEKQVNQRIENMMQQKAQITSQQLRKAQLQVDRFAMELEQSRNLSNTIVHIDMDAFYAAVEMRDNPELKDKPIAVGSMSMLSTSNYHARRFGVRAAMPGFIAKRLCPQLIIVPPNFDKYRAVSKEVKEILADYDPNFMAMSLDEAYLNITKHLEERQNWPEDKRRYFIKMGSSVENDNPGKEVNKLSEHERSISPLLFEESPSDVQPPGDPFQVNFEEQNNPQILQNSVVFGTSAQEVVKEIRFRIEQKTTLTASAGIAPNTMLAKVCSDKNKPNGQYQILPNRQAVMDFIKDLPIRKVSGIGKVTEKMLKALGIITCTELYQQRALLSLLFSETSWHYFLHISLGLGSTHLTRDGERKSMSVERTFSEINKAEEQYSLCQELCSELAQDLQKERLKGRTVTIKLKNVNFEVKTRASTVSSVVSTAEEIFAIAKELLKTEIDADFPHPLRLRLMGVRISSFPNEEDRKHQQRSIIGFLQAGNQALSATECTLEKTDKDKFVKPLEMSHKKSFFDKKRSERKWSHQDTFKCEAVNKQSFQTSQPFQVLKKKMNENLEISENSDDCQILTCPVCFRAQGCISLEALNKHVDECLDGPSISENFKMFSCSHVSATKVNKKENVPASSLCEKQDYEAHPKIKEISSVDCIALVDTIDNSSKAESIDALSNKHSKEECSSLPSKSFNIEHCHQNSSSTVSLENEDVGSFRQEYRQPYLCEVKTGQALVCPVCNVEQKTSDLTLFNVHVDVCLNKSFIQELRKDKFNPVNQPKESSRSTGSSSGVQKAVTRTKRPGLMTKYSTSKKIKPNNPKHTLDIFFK
Test: qHTS for Inhibitors of Polymerase Kappa
Conditions: purified Pol kappa, fluorescent DNA synthesis assay, 10 min; series mostly up to 107 µM; activity, negative = inhibition: at the top concentration
How it was run: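 Inhibition of 10 nM Pol kappa is measured by a fluorescent read-out at 0 and 10 min following addition of 50 nM substrate (final), with a 15-min room-temperature compound preincubation.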
On the % scale 0 is the no-effect control and ±100 the full control effect; potency means the concentration at half of the fitted maximal effect.

activity, negative = inhibition, inactive:
COC(=O)/C(C(C)=O)=C(/C=C/C=C/N(C)C)N(C)C -17.5%
CCC(C)Nc1ccc(NC(C)CC)cc1 (stereo not given) -0.373%
C[C@H]1c2cccc(O)c2C(O)=C2C(=O)[C@]3(O)C(O)=C(C(N)=O)C(=O)[C@@H](N(C)C)C3[C@@H](O)C21 (stereo not given in full) -6.13%
CCCCCCCCCCCCCCCC[n+]1ccc(CC(O)c2c(C)[nH]c3ccccc23)c2ccccc21 (stereo not given) 64.1%
Nc1ccc2nc[nH]c2c1 -21%
C=C1C(=O)O[C@@H]2C3OC3(C)CC/C=C(\C)CC[C@@H]12 (stereo not given in full) -6.53% [at 19.4 µM]
CCCCC(CC)COC(=O)CC(C(=O)OCC(CC)CCCC)S(=O)(=O)O (stereo not given) -17.4% [at 19.4 µM]
CCN(CC)[C@@H](C)CN1c2ccccc2Sc2ccccc21 -16.8% [at 19.4 µM]
CCOC(=O)[C@H]1O[C@@H]1C(=O)N[C@@H](CC(C)C)C(=O)NCCC(C)C -6.78%
COc1ccc(CCNC(=O)c2ccc(CS(=O)(=O)c3ccc(C)cc3)o2)cc1OC -5.85%
CCOC(=O)C1C(C(=O)OC)=C(C2=CCCCC2)c2ccccc2N1S(=O)(=O)C(F)(F)F (stereo not given) -9.53%
C=CCn1c(=O)n(C2OC(CO)C(O)C2O)c2nc(N)[nH]c(=O)c21 (stereo not given) 14.4% [at 60.1 µM]
CCCC1OC2CC3C4CCC5=CC(=O)C=CC5(C)C4C(O)CC3(C)C2(C(=O)CO)O1 (stereo not given) -14% [at 60.1 µM]
COc1cc(C(CCN2CCOCC2)c2c(OC)cc(OC)c3c(-c4ccccc4)cc(=O)oc23)cc(OC)c1OC (stereo not given) -7.03%
C#Cc1ccc([C@@H]2C=C(C(=O)O)O[C@H](OCCCCO)C2)cc1 -38.8%
COC(=O)[C@H]1[C@@H]2C[C@@H]3c4[nH]c5ccccc5c4CCN3C[C@H]2CC[C@H]1O -7.59% [at 19.4 µM]
CCOC(=O)c1nc(Nc2ccc(C(=O)OC)cc2)c2ccccc2n1 -7.27%
CC(NC(=O)C1CCCN1C(=O)CN)C(=O)O (stereo not given) 10.1% [at 60.1 µM]
CCc1cccc(C)c1NC(=O)C1CCN(c2nn3c(=O)cc(C)nc3s2)CC1 0.0163%
CO[C@]1(NC(=O)Cc2cccs2)C(=O)N2C(C(=O)O)=C(COC(N)=O)CS[C@H]21 -0.978% [at 12 µM]
NC(=S)N=Nc1ccc(NN=C(N)N)cc1 -14.8%
H-MNYLAFPRM-NH2 19.7% [at 60.1 µM]
CCCCCCCCCCCCCCCC(=O)N[C@@H](COP(=O)(O)O)C(=O)O 4.68% [at 19.4 µM]
C[C@@H]1C(c2ccc(F)cc2)=NN(c2ccc(Br)cc2)[C@H]1C(=O)N1CCOC1=O -10.4%
O=C(O)C1=CC(=C(c2ccc(O)c(C(=O)O)c2)c2ccc(O)c(C(=O)O)c2)C=CC1=O -98.1%
CC(C)=CCc1c2c(c3occ(-c4ccc(O)c(O)c4)c(=O)c3c1O)C=CC(C)(C)O2 -13.5%
CN(c1ccc(Cl)cc1)S(=O)(=O)c1nnc(NC(=O)c2ccco2)s1 6.27%
O=C(COC(=O)C12CC3CC(CC(C3)C1)C2)NCc1ccco1 -15.4%
COc1cc(C(CC(=O)N2CCCC2)c2c(OC)cc(OC)c3ccc(=O)oc23)cc(OC)c1OC (stereo not given) -25.3%
CC[C@]1(O)C[C@@H]2CN(CCc3c([nH]c4ccccc34)[C@@](C(=O)OC)(c3cc4c(cc3OC)N(C)C3[C@]45CCN4CC=C[C@](CC)(C45)[C@@H](OC(C)=O)[C@]3(O)C(=O)OC)C2)C1 (stereo not given in full) 3.37% [at 19.4 µM]
O=C(c1cc(O)c(O)c([N+](=O)[O-])c1)c1ccccc1F -18.4% [at 60.1 µM]
Cc1nn(C)c2c1c(C(F)(F)F)cc(=O)n2C(C)C(=O)NCc1ccccc1 (stereo not given) 27.5%
COc1ccccc1C1CC(=O)Oc2cc(C)c(Cl)cc21 (stereo not given) -17.2%
COc1cc2c(cc1OC)C(C(C(=O)N(CCc1ccc(OC)c(OC)c1OC)CCc1ccc(OC)c(OC)c1OC)c1ccccc1)=NCC2 (stereo not given) -33.3%
CC(C)(C)[C@@H](O)C(Cc1ccc(Cl)cc1)n1cncn1 (stereo not given in full) 13.3% [at 60.1 µM]
COc1ccccc1[C@H]1C(c2ccc(F)cc2)=NN(c2ccccc2)[C@@H]1CO -0.924%
CCCCCCCCCCCCOCCOCCOCCOCCO -11.9% [at 60.1 µM]
H-HCKFWW-OH 13.2% [at 60.1 µM]
O[C@@H]1[C@@H]2c3cc4c(cc3CN3CCC(=C[C@@H]1O)[C@H]23)OCO4 -6.58% [at 12 µM]
O=C(CN1C(=O)COc2ccc(S(=O)(=O)N3CCCCCC3)cc21)NCc1ccc(F)cc1 2.06%
O=C1CCN(CCc2ccccc2)CCN1[C@H](CO)Cc1ccccc1 -7.96%
COc1cc(/C=C2/SC(=O)NC2=O)ccc1Oc1ccc([N+](=O)[O-])cc1[N+](=O)[O-] 0%
CC[C@H](C)[C@H](NC(=O)[C@H](Cc1ccc(O)cc1)NC(=O)[C@H](CCCNC(=N)N)NC(=O)[C@H](CCCNC(=N)N)NC(=O)[C@H](CC(C)C)NC(=O)[C@H](CC(=O)O)NC(=O)[C@H](C)NC(=O)[C@H](C)NC(=O)[C@H](Cc1ccc(O)cc1)NC(=O)[C@H](CCC(N)=O)NC(=O)[C@H](C)NC(=O)[C@H](CCSC)NC(=O)[C@H](CCC(N)=O)NC(=O)[C@H](CCC(=O)O)NC(=O)[C@@H]1CCCN1C(=O)[C@@H](NC(=O)[C@H](C)NC(=O)[C@H](CC(N)=O)NC(=O)[C@H](CC(=O)O)NC(=O)CNC(=O)[C@@H]1CCCN1C(=O)[C@H](Cc1ccc(O)cc1)NC(=O)[C@@H](NC(=O)[C@@H]1CCCN1C(=O)[C@H](CCC(=O)O)NC(=O)[C@H](CC(C)C)NC(=O)[C@@H]1CCCN1C(=O)[C@H](C)N)C(C)C)[C@@H](C)O)C(=O)N[C@@H](CC(N)=O)C(=O)N[C@@H](CCSC)C(=O)N[C@@H](CC(C)C)C(=O)N[C@H](C(=O)N[C@@H](CCCNC(=N)N)C(=O)N1CCC[C@H]1C(=O)N[C@@H](CCCNC(=N)N)C(=O)N[C@@H](Cc1ccc(O)cc1)C(N)=O)[C@@H](C)O 18.2% [at 60.1 µM]
c1nc(NC2CCCCCC2)c2[nH]cnc2n1 13.1%
CN1c2ccc(Cl)cc2-c2nc(SCC(=O)Nc3cc(F)ccc3F)ncc2S1(=O)=O 27.4%

Potency, active:
Oc1cc2c(cc1O)C1c3ccc(O)c(O)c3OCC1(O)C2 (stereo not given) 22.4 µM and 14.1 µM and 178 nM
CSCC(=O)N1CCC(n2nccc2NC(=O)c2ccc3c(c2)OCO3)CC1 79.4 µM
COc1cccc2c1C(=O)c1c(O)c3c(c(O)c1C2=O)C[C@@](O)(C(=O)CO)C[C@@H]3OC1CC(N)C(O)C(C)O1 (stereo not given in full) 10.6 µM
CC1=N/C(=C/c2ccco2)C(=O)O1 50.1 µM
Cc1ccc(C)c(S(=O)(=O)Nc2ccc3oc(C)c(C(=O)O)c3c2)c1 79.4 µM
CN(C)c1ccc2cc(S(=O)(=O)O)cc(O)c2c1 31.6 µM
NC(=O)c1ccc(-n2nnnc2SCC(=O)c2ccc(O)c(O)c2)cc1 25.1 µM
O=C1C(=Cc2ccco2)CCC1=Cc1ccco1 5.01 µM
COc1cc(OC)c2ccc(=O)oc2c1C(CC(=O)N1CCCC1)c1ccc2c(c1)OCO2 (stereo not given) 79.4 µM and 50.1 µM
O=C(/C=C/c1ccco1)N(c1ccccn1)c1ccccn1 31.6 µM
Nc1c(N=Nc2ccc([N+](=O)[O-])cc2)c(S(=O)(=O)O)cc2cc(S(=O)(=O)O)c(/C=C/c3ccccc3)c(O)c12 31.6 µM
O=C(Nc1ccc2nc(-c3ccco3)c(-c3ccco3)nc2c1)N1CCCC1 31.6 µM
Cc1cc(/C=C(/C#N)c2nc3ccccc3[nH]2)c(C)n1-c1cc(C(=O)O)cc(C(=O)O)c1 39.8 µM
CCc1cccc(CC)c1-n1c(SCC(=O)N2CCCc3ccccc32)nc(O)cc1=O 44.7 µM
Cc1c(O)cc2c(c1O)C(=O)CC(c1ccc(O)cc1)O2 (stereo not given) 14.1 µM
C/C=C\C=C/C(=O)Nc1cccc(C2=NOC3(C2)C[C@@H](C(N)=O)N(C(=O)/C=C/C=C\C)C3)c1 (stereo not given in full) 20 µM
COc1cccc(-n2c(SCc3cc(=O)oc4cc(O)c(O)cc34)nc3ccccc3c2=O)c1 31.6 µM
CCN(C(=O)C(C)N1C(=O)/C(=C/c2ccco2)SC1=S)C1CCS(=O)(=O)C1 (stereo not given) 28.2 µM
CCc1nn2c(=O)cc(COc3ccc(/C=C4\C(=N)N5N=C(C)SC5=NC4=O)cc3)nc2s1 79.4 µM
Cc1cc(=O)c2c(o1)C(=O)c1occc1C2=O 31.6 µM
C[N+](C)(CCCCCI)c1ccc(/C=C/c2nc3ccccc3s2)cc1 44.7 µM
COc1cccc(O)c1O 3.16 µM
Cc1ccc(CNC(=O)c2ccc(-n3cccc3)cc2)cc1 22.4 µM
C[C@H](Cc1ccc(O)c(O)c1)[C@@H](C)Cc1ccc(O)c(O)c1 22.4 µM and 1.68 µM
C/C=C\C=C\C(=O)N1CC2(CC(c3cccc(NC(=O)CC)c3)=NO2)C[C@H]1C(N)=O (stereo not given in full) 79.4 µM

Potency, inactive:
NC[C@@H]1O[C@H](C23CC4CC(CC(C4)C2)C3)Cc2c1ccc(O)c2O
C[C@H](O)CC(=O)O
COc1cc(/C=C/C(=O)/C=C(O)/C=C/c2ccc(O)c(OC)c2)ccc1O
CNCC(O)c1ccc(O)c(O)c1 (stereo not given)
C=C1C(c2ccc(C)cc2)=CCc2cc(C)cc(C)c21
CCOC(=O)C1=C(C)NC(=S)NC1c1cccc(O)c1 (stereo not given)
Cc1cc(C)nc(NS(=O)(=O)c2ccc(N)cc2)n1
Cn1nnc2c(C(N)=O)ncn2c1=O
COC(=O)[C@H]1[C@H]2C[C@H]3c4[nH]c5ccccc5c4CCN3C[C@H]2CC[C@@H]1O
NCCc1ccc(O)c(O)c1
